# Experimental data reported in PubChem BioAssay AID1745845 (National Center for Advancing Translational Sciences (NCATS), 2022).
# Several values for one entry are separate records, joined by “and”; a condition that tells them apart may be missing. Equal entries are not always repeated. Among all 360,000 compounds or so, about 2,600 (0.72%) were called active. This list was built around the results that the source calls inconclusive (neither active nor inactive); the mix of calls is not that of the screen. Calls come from the whole dose curve; as a rule, active = well fitted inhibition curve with a large enough effect; inconclusive = small, poorly fitted or top-dose-only effect; inactive = no such curve, though single readings can be large or run the other way. A potency beside an inconclusive call is a rough fit, not a confirmed value.
# Experiment: Primary qHTS for Inhibitors of ATXN expression; note: nearly all actives have a fitted effect of over 55% in size
# Conditions: HEK-293 ATXN2-luciferase reporter, luminescence, 24 h; series mostly up to 57 µM
# Procedure, shortened: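 qHTS (up to 57 uM final) was run with 24 h compound exposure of reporter cells at 37 °C. Each well was multiplexed: SteadyGlo luminescence measured ATXN2-luciferase expression after a fluorogenic Gly-Phe-AFC viability readout (25 uM final).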
# Potency is the fitted concentration of half-maximal effect; tags give direction and shape of the fitted curve.
row,SMILES,Potency
1,COc1cccc(Cn2nnc(C(=O)Nc3cc(C)ccc3OC)c2N)c1,"inconclusive: 4.47 µM [inhibitor, full curve]"
2,Cc1nn(C)c(C(=O)NC(=S)Nc2ccccc2O)c1Cl,inactive
3,Cc1ccc(NC(=O)C2=CC(c3ccc4c(c3)OCO4)=NS(=O)(=O)N2C)cc1,inactive
4,COc1ccc(C(=O)O/N=C(\N)Cc2ccc(Cl)c(Cl)c2)cc1OC,"inconclusive: 39.8 µM [inhibitor, single point]"
5,O=C(NCCN1CCN(c2ccccc2)CC1)C1CCN(S(=O)(=O)c2cccc3nonc23)CC1,inactive
6,COc1cc2cc(CN(CCCN3CCOCC3)C(=O)Nc3ccccc3F)c(=O)[nH]c2cc1OC,"inconclusive: 4.74 µM [inhibitor, partial curve, poor fit]"
7,Cc1cccc(C2(c3cccc(C)c3)CC2C(=O)Nc2ccc([N+](=O)[O-])cc2O)c1 (configuration not stated),"inconclusive: 14.1 µM [inhibitor, partial curve]"
8,CCN1/C(=C/C=C/c2sc3ccccc3[n+]2CC)Sc2ccccc21,active: 2.51 µM and active: 7.08 µM
9,COCCNC(=S)N1CCN(c2cccc(C)c2C)CC1,inactive
10,O=C(Nc1cccc(C(=O)N2CCOCC2)c1)c1ccc([N+](=O)[O-])cc1,inactive
11,COc1cccc(NC(=O)c2cccc(N3C(=O)C4C5C=CC(C5)C4C3=O)c2)c1 (configuration not stated),inactive
12,Cn1c(NC(=O)c2ccccc2NC(=O)C(C)(C)C)nc2ccccc21,inactive
13,Cc1cc(C(=O)N2CCc3ccccc3C2)n[nH]1,inactive
14,CCOC(=O)c1cc2c(=O)n3ccccc3nc2n(Cc2ccco2)c1=NC(=O)c1ccc(OCC)cc1,inactive
15,CCCCc1cc(=O)oc2cc(OCC(=O)N(CC)CC)ccc12,inactive
16,O=S1(=O)C=C(Sc2nnc(-c3ccccc3)o2)c2ccccc21,active: 10 µM
17,CNc1nc(NCc2ccc(C)cc2C)c2sccc2n1,"inconclusive: 14.1 µM [inhibitor, partial curve]"
18,O=S(=O)(c1ccc2c(c1)OCCO2)N1CCN(c2ncnc3sccc23)CC1,"inconclusive: 7.94 µM [inhibitor, partial curve]"
19,CC(C)c1ccc(NC(=O)CSc2nc(-c3ccccc3F)nc3nc[nH]c23)cc1,"inconclusive: 39.8 µM [inhibitor, single point]"
20,CC[N+]1(C)CCC(O)(/C=C/c2ccccc2)C(C(=O)/C=C/c2ccccc2)C1 (configuration not stated),"inconclusive: 16.8 µM [inhibitor, partial curve, poor fit]"
21,CC1(C)Cc2c(ccc3ccccc23)C2=C(C(=O)N3CCCC3)C(=O)C(=O)N21,"inconclusive: 18.9 µM [inhibitor, partial curve, poor fit]"
22,COc1ccc2c(=O)cc(C(F)(F)C(F)(F)F)oc2c1,inactive
23,Cc1ccc2cccc(NS(=O)(=O)c3ccccc3)c2n1,inactive
24,CSCC[C@H](NC(=O)c1ccc(Cl)c([N+](=O)[O-])c1)c1nc2ccccc2[nH]1,"inconclusive: 31.6 µM [inhibitor, single point]"

row,SMILES,Potency
1,c1ccc(-c2cc(-c3ccncc3)nc3ccc4ccccc4c23)cc1,"inconclusive: 14.1 µM [inhibitor, partial curve]"
2,COc1ccc(CNc2ncnc3cc(Cl)ccc23)cc1,"inconclusive: 33.6 µM [inhibitor, partial curve, poor fit]"
3,COc1cc(C(=O)/C=C/c2cccnc2)c([N+](=O)[O-])cc1OC,active: 12.6 µM
4,CCN(CC)C(=O)c1cccc(-c2csc(C(C)(O)c3ccc(OC)cc3)n2)c1 (configuration not stated),"inconclusive: 11.2 µM [inhibitor, partial curve]"
5,COc1ccc(CN2CCC[C@]3(N[C@H](c4ccc(C(F)(F)F)cc4)[C@@H]4C(=O)N(Cc5ccccc5)C(=O)[C@@H]43)C2=O)cc1,inactive
6,Cc1ccc2cc(C(c3nnnn3C3CCCC3)N(Cc3cccnc3)Cc3ccco3)c(=O)[nH]c2c1 (configuration not stated),"inconclusive: 39.8 µM [inhibitor, single point]"
7,COc1ccc(CNc2ccc(N3CCN(C(C)=O)CC3)cc2)cc1OC,inactive
8,Clc1ccc(CSc2nnc(-c3ccccn3)n2Cc2ccco2)c(Cl)c1,"inconclusive: 25.1 µM [inhibitor, partial curve, poor fit]"
9,CCc1ccc(-c2cn(-c3nc(C)cc(C)n3)c(=N)o2)cc1,"inconclusive: 22.4 µM [inhibitor, single point]"
10,CCn1cc(Cl)c(C(=O)Nc2nc3ccccc3n2CCN2CCCCC2)n1,inactive
11,CCOc1ccc(CSC2=NCCN2)cc1Cl,inactive
12,N#Cc1ccsc1NC(=O)CCS(=O)(=O)c1ccccc1,inactive
13,CCOc1ccccc1NC(=O)c1ccc(CN2CCc3ccccc3C2)cc1,inactive
14,O=C(CSc1nc2nn(-c3ccccc3)c(=O)c-2c2n1CCCCC2)NCCCc1ccccc1,inactive
15,CCCCc1c(-c2cccc(Br)c2)ncn1CCc1ccccc1OC,"inconclusive: 25.1 µM [inhibitor, partial curve]"
16,Cc1nc2cc(-c3cccc(F)c3)nn2c(C)c1CCC(=O)NC(C)CCc1ccco1 (configuration not stated),"inconclusive: 11.2 µM [inhibitor, partial curve]"
17,CCCCCCCCCn1ccc(=N)cc1,active: 2.12 µM
18,CC(=O)N(C)c1ccc(C(O)(C(F)(F)F)C(F)(F)F)cc1,inactive
19,O=C(Cc1ccccc1)NCC(=O)N/N=C/c1ccc([N+](=O)[O-])s1,"inconclusive: 3.16 µM [inhibitor, partial curve]"
20,C(=NN=C1c2ccccc2-c2ccccc21)c1c[nH]c2ccccc12,inactive
21,Cc1c(Cc2ccccc2)c(=O)n2c([nH]c3ccccc32)c1C#N,"inconclusive: 11.2 µM [inhibitor, partial curve, poor fit]"
22,O=C1c2ccccc2C(c2nnnn2-c2ccc3c(c2)OCCO3)N1Cc1cccs1 (configuration not stated),inactive
23,O=S(=O)(Nc1ccc(Cl)cc1)c1cccc(S(=O)(=O)c2ccc(Cl)c(Cl)c2)c1,"inconclusive: 39.8 µM [inhibitor, single point]"
24,OC(c1ccc2ccccc2c1)c1ncc(-c2cccc3ccccc23)[nH]1 (configuration not stated),"inconclusive: 39.8 µM [inhibitor, single point]"

row,SMILES,Potency
1,O=C1/C(=C/c2ccccc2)CN(C(=O)CCN2CCOCC2)C/C1=C\c1ccccc1,active: 26.7 µM
2,COc1ccc(/C=N/Nc2ncc(-c3ccccc3)cn2)c(OC)c1,"inconclusive: 4.47 µM [inhibitor, partial curve, poor fit]"
3,COc1ccc(C2=C(CN(C)C)C(c3ccccc3)c3ccccc3O2)cc1 (configuration not stated),"inconclusive: 28.2 µM [inhibitor, single point]"
4,COCC(C)n1c(SCC(=O)NCCC2=CCCCC2)nc2ccccc2c1=O (configuration not stated),"inconclusive: 22.4 µM [inhibitor, partial curve, poor fit]"
5,O=C(Cn1nc(-c2ccc(Cl)cc2)ccc1=O)NCc1ccc2c(c1)OCO2,inactive
6,CCO[C@H]1OC(C(=O)N2CCN(Cc3ccccc3)CC2)=C[C@@H](c2ccc(C(F)(F)F)cc2)[C@@H]1CCCO,"inconclusive: 39.8 µM [inhibitor, single point]"
7,O=C(Nc1ccc(CN2CCOCC2)cc1)c1cccc(-c2cc3ccccc3oc2=O)c1,"inconclusive: 28.2 µM [inhibitor, single point]"
8,CC(C)(C)c1ccc(C(=O)N2CCC(=O)N([C@H](COCc3ccccc3)Cc3ccccc3)CC2)cc1,active: 31.6 µM
9,CCc1nn(CC(=O)N2CCN(c3cccc(C(F)(F)F)c3)CC2)c(=O)c2cccn12,inactive
10,Cc1ccc(N(C(=O)CCl)C(C(=O)NC2CCCCC2)c2cccnc2)cc1C (configuration not stated),active: 3.16 µM
11,O=C(NC1=NC2CCCCC2N1)c1ccccc1 (configuration not stated),"inconclusive: 17.8 µM [inhibitor, single point]"
12,CCOC(=O)c1ccc(NS(=O)(=O)c2ccc3[nH]c4c(c3c2)CCCCC4)cc1,"inconclusive: 25.1 µM [inhibitor, single point]"
13,COc1ccc(-c2c(C(=O)c3ccc(Br)cc3)[nH]c(N)c2C(=O)c2ccccc2)cc1OC,inactive
14,OCCNc1c2ccccc2nc2ccccc12,active: 18.9 µM
15,O=C(CSc1nnc(-c2ccccc2F)n1C1CC1)Nc1cccnc1Cl,inactive
16,O=C(Nc1ccc([N+](=O)[O-])cc1)c1cc(-c2ccccn2)nc2c(Cl)cccc12,"inconclusive: 26.7 µM [inhibitor, single point]"
17,C[C@]12C=CC(=O)C=C1CC[C@@H]1[C@@H]2[C@@H](O)C[C@@]2(C)[C@H]1CC[C@]2(O)C(=O)COC(=O)CCC(=O)NCCc1ccc(O)cc1,inactive
18,O=C(Nc1nc(-c2ccccn2)cs1)c1ccc(Cl)s1,"inconclusive: 4.47 µM [inhibitor, full curve]"
19,COc1ccc(/C=C(\C#N)C(=O)C(C)(C)n2cncn2)cc1,inactive
20,NC(=O)CC(NC(=O)c1ccccc1)c1ccc(NC2CCCCCCC2)c([N+](=O)[O-])c1 (configuration not stated),"inconclusive: 39.8 µM [inhibitor, partial curve, poor fit]"
21,COc1ccc(C)cc1NC(=O)CSc1nc(=O)n(Cc2ccccn2)c2c1CCC2,inactive
22,Cn1nnnc1SCCCNCc1cccc(OCc2ccccc2Cl)c1,"inconclusive: 22.4 µM [inhibitor, single point]"
23,CCN(CC)c1ccc(/C=N/NC(=O)c2ccc3nc[nH]c3c2)c(O)c1,active: 2.82 µM
24,COc1ccccc1NC(=O)c1c(N=Cc2c(O)ccc3ccccc23)cnn1C,inactive
